Experimental data from publication PMC7819943, “Rice protein-binding microarrays: a tool to detect cis-acting elements near promoter regions in rice”.
The other results are listed elsewhere or left out.

target: T1, OsWOX13 (Oryza sativa, UniProt Q5QMM3 1-267); test: protein-binding microarray (RPBM); PBS, 2% BSA, 51.3 ng/ul salmon testes DNA, 50 uM zinc acetate, 200 nM TF, 25 C, 1 h; high values mean tight binding; details: protein: recombinant; tags: N-terminal polyhistidine and DsRed monomer fusion (pET32a); label: CyDye5-dUTP incorporated in the synthesized complementary strand; 3' TTTTT single-stranded linker to array surface; dsDNA, one strand shown
T1 sequence: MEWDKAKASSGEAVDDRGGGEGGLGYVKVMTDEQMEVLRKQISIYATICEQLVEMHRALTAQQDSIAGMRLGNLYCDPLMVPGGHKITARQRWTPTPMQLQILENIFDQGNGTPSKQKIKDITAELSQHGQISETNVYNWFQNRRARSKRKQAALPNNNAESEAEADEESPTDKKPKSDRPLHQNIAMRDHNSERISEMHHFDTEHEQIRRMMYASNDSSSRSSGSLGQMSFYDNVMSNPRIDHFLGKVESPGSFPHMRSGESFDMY
Procedure, shortened: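 Transcription factors were each fused at the N-terminus to a polyhistidine tag plus DsRed and expressed in E. coli BL21-CodonPlus before Ni–NTA purification. Binding to a double-stranded custom Agilent array was carried out with 200 nM protein at 25 °C for 1 h in PBS, 2% BSA, salmon testes DNA and 50 µM zinc acetate. The binding signal is per-feature fluorescence intensity, in arbitrary units, on an Axon 4000B scanner.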

Row | Sequence | binding signal
1 | CACTGGCAAATCCTAATTGATGGATCAGAGCCAAGCATGTCGGAGTCACCTAGTGCAG | 31200 fluorescence intensity (a.u.)
2 | ACTAAATTATAGTCACATACACAAGTCAACAGTTCAATTTCGGAGTCACCTAGTGCAG | 13900 fluorescence intensity (a.u.)
3 | TCGTGATAATATACTCCTGACAATATAAGATTGCTGCTGGCGGAGTCACCTAGTGCAG | 3280 fluorescence intensity (a.u.)
4 | CCTTATTTGACGGATCGATCGAATCAATCGTGCCCAGCAGCGGAGTCACCTAGTGCAG | 3300 fluorescence intensity (a.u.)
5 | TGCTGAAATGATTGCTTGCTTGGAAGATGATCATTTTGGTCGGAGTCACCTAGTGCAG | 36600 fluorescence intensity (a.u.)
6 | AATGTTATAATTGATTGGGCCTTCTTTGTAGCTTCTTCTACGGAGTCACCTAGTGCAG | 33000 fluorescence intensity (a.u.)
7 | GATAACTCCAAATGATAGGCTGAGAGGTGTTGTGACACTTCGGAGTCACCTAGTGCAG | 6630 fluorescence intensity (a.u.)
8 | TATGGTCTAACATATGATTGCAAATGTCCAACTGTAGGTCCGGAGTCACCTAGTGCAG | 4050 fluorescence intensity (a.u.)
9 | AAACTCAATTGACAGCCCAGTTGCTTTGCCTCCCCGAAACCGGAGTCACCTAGTGCAG | 4860 fluorescence intensity (a.u.)
10 | TGTTGATAGGCAAGTTTACGCTGAACTTTTGGGTTGCGTGCGGAGTCACCTAGTGCAG | 26000 fluorescence intensity (a.u.)
11 | ACACGGCGAGATTGAAATTGTATTGTGTGGCTTGCCTAGACGGAGTCACCTAGTGCAG | 12000 fluorescence intensity (a.u.)
12 | TGATATATAATTGTGACACCCAATCATCTCTGCTTTGGTCCGGAGTCACCTAGTGCAG | 12100 fluorescence intensity (a.u.)
13 | ATGAATAATTAACCTCCGAATCAAAGGGAGGGCCGACTGCCGGAGTCACCTAGTGCAG | 7080 fluorescence intensity (a.u.)
14 | CTATCTTAATTATAGATAGAGAGATAGATAGATATATTTGCGGAGTCACCTAGTGCAG | 34300 fluorescence intensity (a.u.)
15 | TTAATTTAAATCTTGCTCCAGTTTTGCACCTTATTTGACACGGAGTCACCTAGTGCAG | 11100 fluorescence intensity (a.u.)
16 | GAGAACTCTAATGAATTAGATTATATTCATGCTTGTTGATCGGAGTCACCTAGTGCAG | 5820 fluorescence intensity (a.u.)
17 | TTATACGATTAGTCAATTAAACTATTAATTTTGTCACCAACGGAGTCACCTAGTGCAG | 21000 fluorescence intensity (a.u.)
18 | GTTGCGGGGTGGGTGGTGGCGTTGCGGGAGGAGGAGGGAGCGGAGTCACCTAGTGCAG | 12700 fluorescence intensity (a.u.)
19 | GAGATTGAATGACACTGAATGAATATTATTGTCGAATGATCGGAGTCACCTAGTGCAG | 47700 fluorescence intensity (a.u.)
20 | TGGATAAATTATTCATACTAATTACATCGTACTTACACTACGGAGTCACCTAGTGCAG | 9120 fluorescence intensity (a.u.)
21 | GTCCTCTTTCAATTATATAATATGTTACTTTTGATCACAACGGAGTCACCTAGTGCAG | 13300 fluorescence intensity (a.u.)

Row | Sequence | binding signal
22 | GCATCCCAATCAAACATTTCTCAATCCAAACTTAAACTAGCGGAGTCACCTAGTGCAG | 5840 fluorescence intensity (a.u.)
23 | ATGGTAATTGAATTCTGCCATGATACAAACAGAAAGAAACCGGAGTCACCTAGTGCAG | 12000 fluorescence intensity (a.u.)
24 | CGTAGTTGATCAATGATCATGTCTTCGTGTTCGTGACCTGCGGAGTCACCTAGTGCAG | 3620 fluorescence intensity (a.u.)
25 | AACACGAAAATTGATATAGCTAACACCCAAATGTATATAACGGAGTCACCTAGTGCAG | 3160 fluorescence intensity (a.u.)
26 | AAGGATGATTTTATAAATCTATGGGTGACAAGATGAGGGACGGAGTCACCTAGTGCAG | 18600 fluorescence intensity (a.u.)
27 | ACAAGATTGACCAGGGTTCGCGAAATAAAGCAATAAGATTCGGAGTCACCTAGTGCAG | 10100 fluorescence intensity (a.u.)
28 | ACTATATTAATTAAGAGAGAGTGAAGAGAGGAGGAAACTGCGGAGTCACCTAGTGCAG | 4440 fluorescence intensity (a.u.)
29 | GTTTTCAGTTATATTTTAACTGTTAGCGACTTAGGCATGGCGGAGTCACCTAGTGCAG | 3440 fluorescence intensity (a.u.)
30 | GTGAAAGTTAATTAAGAGTTCAATGCAACTACTAACAACACGGAGTCACCTAGTGCAG | 4860 fluorescence intensity (a.u.)
31 | GGGTCCAGATTGCCAAGACACAAATTGGGGCCCACTACTCCGGAGTCACCTAGTGCAG | 3500 fluorescence intensity (a.u.)
32 | GCCATGATTTTGACAATGTGATGTTACATTAAACTTTTGACGGAGTCACCTAGTGCAG | 12000 fluorescence intensity (a.u.)
33 | GAAATTAACCAATCAAGCACTTGGCTAGCATAATTCCTTTCGGAGTCACCTAGTGCAG | 37800 fluorescence intensity (a.u.)
34 | CTGTTAATTGCAAGCACCTTTTCACAATGGAGGACACTAACGGAGTCACCTAGTGCAG | 27500 fluorescence intensity (a.u.)
35 | TAACTAATTAATTAAGCTACTCCGTATTACGCACCGTAGCCGGAGTCACCTAGTGCAG | 46800 fluorescence intensity (a.u.)
36 | TCAATTTGATAGATAGATTTCATAATAGGGTTAAATAAGCCGGAGTCACCTAGTGCAG | 32600 fluorescence intensity (a.u.)
37 | TATCACTAATAATTTAGCTCAGTTTGACAAGACGGATATCCGGAGTCACCTAGTGCAG | 4380 fluorescence intensity (a.u.)
38 | ATTTATTTATATATTTAAATTTAAAGAAAATTAAAAGAACCGGAGTCACCTAGTGCAG | 3510 fluorescence intensity (a.u.)
39 | GTTGATTTCACGACCTGCTCGCTGAGGAATGGAGGTCCAGCGGAGTCACCTAGTGCAG | 3180 fluorescence intensity (a.u.)
40 | AATAGATAGATTGATACCACCACTTAACTATACTAATGCTCGGAGTCACCTAGTGCAG | 63700 fluorescence intensity (a.u.)
41 | TGACGTAATTAGGCTCAAAAGATTCGTCTCGTAATTTACACGGAGTCACCTAGTGCAG | 8880 fluorescence intensity (a.u.)
42 | AATATATGATGATTAATGATATAACAATAAGTTCGACAAACGGAGTCACCTAGTGCAG | 8700 fluorescence intensity (a.u.)
